Paper PMC12420274
Changes are numbered by the printed parent chain. Read-outs that look alike come from different tables or passages of the source. Results are given in words; binding and its absence hold for the method and conditions named. Binding seen in cells or lysates may run through a third protein. Some entries that bind do so weakly or less than the wild type. For part of these data: Sequences can lack the tags named with a protein. Values belong to the molecule of their own block, whether it stands above or below them.

The chains behind the UniProt entries cited, without tags or fusion partners. Residues count along the entry.
UniProt P12314, residues 16-374: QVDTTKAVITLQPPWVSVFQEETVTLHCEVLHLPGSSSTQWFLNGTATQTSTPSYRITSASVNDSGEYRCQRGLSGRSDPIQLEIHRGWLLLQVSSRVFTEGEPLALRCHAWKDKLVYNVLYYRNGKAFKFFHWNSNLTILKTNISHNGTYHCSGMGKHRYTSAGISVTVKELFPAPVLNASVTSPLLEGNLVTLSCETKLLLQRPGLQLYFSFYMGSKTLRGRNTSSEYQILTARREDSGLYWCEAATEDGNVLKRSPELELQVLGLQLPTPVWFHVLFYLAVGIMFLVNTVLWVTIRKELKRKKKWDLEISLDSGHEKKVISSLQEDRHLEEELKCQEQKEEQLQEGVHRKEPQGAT
UniProt P12318, residues 34-317: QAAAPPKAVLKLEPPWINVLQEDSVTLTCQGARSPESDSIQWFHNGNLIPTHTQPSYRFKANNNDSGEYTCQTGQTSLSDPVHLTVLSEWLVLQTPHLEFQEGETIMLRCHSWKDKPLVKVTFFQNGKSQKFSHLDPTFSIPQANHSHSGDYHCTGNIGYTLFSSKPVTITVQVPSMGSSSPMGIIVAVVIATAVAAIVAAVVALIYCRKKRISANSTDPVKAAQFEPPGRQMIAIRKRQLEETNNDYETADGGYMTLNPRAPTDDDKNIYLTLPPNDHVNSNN
UniProt P31994, residues 43-310: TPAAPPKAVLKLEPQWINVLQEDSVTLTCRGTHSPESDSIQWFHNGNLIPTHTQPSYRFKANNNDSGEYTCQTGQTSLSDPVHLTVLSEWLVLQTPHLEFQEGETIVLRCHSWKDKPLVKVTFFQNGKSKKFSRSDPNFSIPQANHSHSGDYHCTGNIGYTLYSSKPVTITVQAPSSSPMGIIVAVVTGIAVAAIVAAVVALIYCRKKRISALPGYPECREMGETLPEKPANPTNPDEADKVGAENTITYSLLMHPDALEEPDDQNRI
UniProt P25911: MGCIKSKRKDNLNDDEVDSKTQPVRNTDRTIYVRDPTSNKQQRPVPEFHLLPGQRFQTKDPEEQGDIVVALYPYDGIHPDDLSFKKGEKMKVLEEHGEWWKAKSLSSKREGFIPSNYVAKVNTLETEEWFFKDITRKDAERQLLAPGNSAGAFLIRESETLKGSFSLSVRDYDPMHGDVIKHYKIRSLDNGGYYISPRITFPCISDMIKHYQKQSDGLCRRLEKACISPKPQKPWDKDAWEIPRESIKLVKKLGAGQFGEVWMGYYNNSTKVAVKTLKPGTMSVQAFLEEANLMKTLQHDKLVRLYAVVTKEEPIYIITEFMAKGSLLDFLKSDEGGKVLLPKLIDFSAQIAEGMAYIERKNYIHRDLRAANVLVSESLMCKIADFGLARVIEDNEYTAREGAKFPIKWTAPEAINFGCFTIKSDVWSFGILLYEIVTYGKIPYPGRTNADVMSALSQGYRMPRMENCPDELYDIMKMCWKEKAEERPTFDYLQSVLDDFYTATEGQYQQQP

Assays:
[1] = molecular target: FcαRI (CD89) Ser^248 variant with the transmembrane Arg^209Leu mutation (FcRγ-pairing-disabled) (human) (UniProt P24071); test: co-IP; FcαRI immunoprecipitated with A59 F(ab')2 Sepharose beads from P388D1 cells stably expressing FcαRI Ser248 or Gly248 with or without Arg209Leu; immunoblot for Sab (mAb 2B5.1), Lyn, FcRγ
[2] = molecular target: FcαRI (CD89) Gly^248 variant with the transmembrane Arg^209Leu mutation (FcRγ-pairing-disabled) (human) (UniProt P24071); test: as above
[3] = molecular target: FcαRI (CD89) Gly^248 variant, FcRγ-pairing-enabled (Arg^209) (human) (UniProt P24071); test: as above
[4] = molecular target: T1, His6-tagged human Sab expressed in COS7 cells (human) (UniProt O60239); test: pull-down; lysates of COS7 cells co-expressing His6-Sab and FcαRI Ser248 or Gly248 passed over a Ni-NTA column; wash 20 mM imidazole, elution 250 mM imidazole; immunoblot for FcαRI in input, flow-through and bound fractions
T1 sequence: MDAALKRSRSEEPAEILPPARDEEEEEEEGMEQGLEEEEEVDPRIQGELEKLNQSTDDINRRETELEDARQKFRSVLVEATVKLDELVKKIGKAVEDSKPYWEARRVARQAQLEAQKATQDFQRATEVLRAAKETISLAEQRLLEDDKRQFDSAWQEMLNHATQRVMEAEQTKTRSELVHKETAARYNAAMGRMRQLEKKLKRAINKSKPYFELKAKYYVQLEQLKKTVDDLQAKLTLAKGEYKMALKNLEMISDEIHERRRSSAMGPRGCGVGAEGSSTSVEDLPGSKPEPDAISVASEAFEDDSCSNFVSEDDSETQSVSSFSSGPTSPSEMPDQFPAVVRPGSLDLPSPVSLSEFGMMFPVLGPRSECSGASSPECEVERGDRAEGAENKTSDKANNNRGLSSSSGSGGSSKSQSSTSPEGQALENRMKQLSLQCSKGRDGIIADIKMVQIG

[5] = molecular target: T2, GST-CYT-Ser^248 S246A, phosphorylated with activated CK1δ (human) (UniProt P24071); test: pull-down; immobilised GST-FcαRI CYT variants and point mutants, with or without treatment with PP1-activated CK1δ, incubated with lysate of U937 cells expressing His6-Sab (Lyn endogenous); immunoblot for His6-Sab and Lyn (the methods describe 10 µg purified His-tagged Sab, 30°C, 60 min, on glutathione Sepharose-4B); only the target purified
T2 sequence (chain, phosphorylated with activated CK1δ): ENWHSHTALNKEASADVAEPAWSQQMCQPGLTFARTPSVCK

[6] = molecular target: T3, GST-FcαRI cytoplasmic domain fusion protein, Ser^248, phosphorylated with PP1-activated CK1δ (human) (UniProt P24071); test: as above
T3 sequence (chain, phosphoserine at 248 (phosphorylated in vitro by PP1-activated CK1δ)): T2 sequence (chain, phosphorylated with activated CK1δ) with A21S

[7] = molecular target: FcγRI (CD64), endogenous in U937 (human (endogenous in U937)) (UniProt P12314); test: co-IP; FcαRI, FcγRI, FcγRIIb and FcγRIIa immunoprecipitated from U937 cells with receptor-specific antibody fragments; immunoblot for Sab (E-18 and 2B5.1)
[8] = molecular target: FcγRIIa (CD32A), endogenous in U937 (human (endogenous in U937)) (UniProt P12318); test: as above
[9] = molecular target: FcγRIIb (CD32B), endogenous in U937 (human (endogenous in U937)) (UniProt P31994); test: as above
[10] = molecular target: FcαRI Ser^248, endogenous in human myeloid cells (human (endogenous in U937, THP-1, HL-60 and primary leukocytes)) (UniProt P24071); test: co-IP; endogenous proteins; U937, THP-1, HL-60, neutrophils and mononuclear cells opsonised with A59 F(ab')2 and FcαRI precipitated with goat anti-mouse IgG beads (intracellular pool of neutrophils with F(ab')2 A59 beads); immunoblot for Sab
[11] = molecular target: FcαRI (CD89) Ser^248 variant with the transmembrane Arg^209Leu mutation (FcRγ-pairing-disabled) (human) (UniProt P24071); test: co-IP; FcαRI immunoprecipitated with A59 F(ab')2 Sepharose beads from P388D1 cells stably expressing FcαRI Ser248 or Gly248 with or without Arg209Leu; immunoblot for Sab (mAb 2B5.1), Lyn, FcRγ; remark: listed apart in the source
[12] = molecular target: FcαRI (CD89) Gly^248 variant with the transmembrane Arg^209Leu mutation (FcRγ-pairing-disabled) (human) (UniProt P24071); test: as above; remark: listed apart in the source
[13] = molecular target: FcαRI (CD89) Ser^248 variant, FcRγ-pairing-enabled (Arg^209) (human) (UniProt P24071); test: as above
[14] = molecular target: FcαRI (CD89) Gly^248 variant, FcRγ-pairing-enabled (Arg^209) (human) (UniProt P24071); test: as above; remark: listed apart in the source

Molecule: Lyn kinase (murine, endogenous in P388D1) (from UniProt P25911 1-512) (enzyme)
binding [1]: binds | binding [2]: binds | binding [3]: binds

Molecule: FcαRI Gly^248 co-expressed in COS7 cells (from UniProt P24071 22-287) (receptor)
binding [4]: no binding

B2: Sab (SH3BP5), endogenous in human myeloid cells (protein, UniProt O60239 1-455)
chain: T1 sequence
binding [7]: no binding | binding [8]: no binding | binding [9]: no binding | binding [10]: binds

Further lines, results first:

binding [4]: binds
Molecule: FcαRI Ser^248 co-expressed in COS7 cells (from UniProt P24071 22-287) (receptor)

binding [5]: binds | binding [6]: binds
B1: His6-tagged human Sab stably expressed in U937 cells (protein, UniProt O60239 1-455)
chain: T1 sequence

binding [11]: binds | binding [12]: no binding | binding [13]: binds | binding [14]: no binding
B3: murine Sab (SH3BP5) (protein, UniProt Q9Z131 1-463)
chain: MDTALKRSRSDEPAELPPPAREVEEKEEEEERMEQGLEEEEEEVDPRIQGELEKLNQSTDDINRRETELEDARQKFRSVLVEATVKLDELAKKIGKAVEDSKPYWEARRVARQAQLEAQKATQDFQRATEVLRAAKETISLAEQRLLEDDKRQFDSAWQEMLNHATQRVMEAEQTKTRSELVHKETAARYNAAMGRMRQLEKKLKRAINKSKPYFELKAKYYVQLEQLKKTVDDLQAKLALAKGEYKAALKSLERISDEIHERRRSNAMGPRGCGVGAEGSIASVENLPVSKPEPDAISVASEAFEDDNCSNLVSEDDSETQSVSSFSSGPTSPSEMPDQFPAVARPGSLDLPSPVSLSEFGMMFPILGPRSECSGASSPECEVERGDRAEGAENKMSDKANNNRVLGSTNGGSGRSRSQSSTSLESQALETRMKQLSLQCSKGRDGIIADIKMIFIFYTFLQ
